Data as given in patent US20240226120A1 (priority 2020, published 2024).

Tested on: interferon and interferon-induced antiviral effector gene expression in cells expressing M-protein
Assay: qPCR of interferons and effector gene expression, M-protein
Format: cell-based, human
Conditions: 1 μM CBD vs vehicle alone, 24 hours (FIG. 19)

Q: Which IFIT1 expression does the source give for `C=C(C)[C@@H]1CCC(C)=C[C@H]1c1c(O)cc(CCCCC)cc1O` [Cannabidiol, 2-[(1R,6R)-3-Methyl-6-(1-methylethenyl)-2-cyclohexen-1-yl]-5-pentyl-1,3-benzenediol] here?
A: significantly increases
